Assay results taken from patent publication US20210277110A1 (Janssen / Centocor, published 2021).

Target: T1, recombinant human TIM-3-Fc fusion protein (huTIM-3-Fc) (human, UniProt Q8TDQ0 22-200)
T1 construct: range 22-200; Bought from R&D Systems (NS0-derived); Deglycosylated for HDX-MS; also called recombinant human Fc-TIM-3 chimera; TIM-3 IgG1 Fc Chimera; not shown: IgG1 Fc of the bought chimera
Experiment: competition ELISA on coated Fc-TIM-3, competitor galectin-9

B1: TM3B109 (antibody, V domains shown)
VH: [left out - about 100 residues]NEEPDDRLDYWGQGTLVTVSS
VL: DIVMTQSPDSLAVSLGERATINCKSSQSVLASSNNKNYLAWYQQKPGQPPKLLIYWASTRESGVPDRFSGSGSGTDFTLTISSLQAEDVAVYYCQQYYSTPLTFGQGTKVEIK
notes: also called TM3H31/PYYL6
- Galectin 9 Inhibition, % inhibition (maximal): 77%
